Data on 54 compounds can be found in ChEMBL document CHEMBL4888484, “Replenishing the malaria drug discovery pipeline: Screening and hit evaluation of the MMV Hit Generation Library 1 (HGL1) against asexual blood stage Plasmodium falciparum ,using a nano luciferase reporter read-out” (2022).

Molecules are shown by their SMILES. Among all 150,000 compounds or so, about 540 (0.36%) showed an effect of 50% or more. This is one part of the list.

The term % Inhibition denotes the change of the read-out against control, counted positive when it falls.

This assay relates to Plasmodium falciparum. Description: Primary screen in NF54 nanoGlo assay, in single point, at 2uM, 72h; a lower Z score goes with more inhibition. The format is functional, Erythrocyte. The note with it: timepoint 72 hour.
Consider `O=C(CCc1ccccc1)Nc1nnc(-c2ccccc2)o1`, for which the “% Inhibition” value is -10% and the Z score came out at 1.79.

On to `CN(C(=O)c1ccc(Cl)c(S(=O)(=O)NC(C)(C)C)c1)c1cnccn1`, for which the “% Inhibition” value is recorded as 10% and the Z score is -1.3.

For the compound `O=C1c2ccccc2C(=O)N1CCN1CCN(CC2CC2)CC1`, the “% Inhibition” value is reported as -8% and the Z score is reported as 1.03.

As for `C[C@@H](CC(=O)Nc1ncc(Br)cc1CO)n1cccn1`, the “% Inhibition” value is listed as -12% and the Z score was found to be 2.35.

Turning to `CCC1CN(S(=O)(=O)C(C)C)CCC1NC(C)c1nc(C)no1` (stereo not drawn), the “% Inhibition” value is on record as 6% and the Z score is given as -0.56.

Consider `CN1CCN(C(=O)c2cc(N(C)C)ccn2)c2ccccc2C1`, for which the “% Inhibition” value is 6% and the Z score was -0.56.

As for `CC(C)[C@H](NC(=O)c1cc(Cn2cccn2)on1)c1nncn1C`, the “% Inhibition” value was -7% and the Z score amounted to 1.12.

For `Cn1nccc1[C@H](CO)NCc1ccsc1C(F)(F)F`, the “% Inhibition” value is recorded as -1% and the Z score is 0.13.

For `CCc1ccccc1OCCN1CCN(C)C1=O`, the “% Inhibition” value is reported as -8% and the Z score is on record as 1.03.

Regarding `CCc1nc(CN(C)CCn2ccnc2C)n[nH]1`, the “% Inhibition” value is listed as -4% and the Z score is reported as 0.72.

On to `COc1cccc(-c2nc(CN3CCC[C@H](COc4cccc(C)c4)C3)c(C)o2)c1OC`, for which the “% Inhibition” value was -2% and the Z score was 0.27.

As to `CCCn1ccnc1[C@H]1CC(=O)Nc2n[nH]c(C3CCC3)c21`, the “% Inhibition” value is listed as -6% and the Z score came to 1.05.

In the case of `CCN(CC)c1onc(-c2ccccc2)c1CN(CC(C)C)C[C@H](O)COc1ccccc1`, the “% Inhibition” value is listed as -2% and the Z score is given as 0.31.

For the compound `C=CCNC(=O)c1ccc(N[C@@H](C)Cn2nc(C)cc2C)nc1`, the “% Inhibition” value is -8% and the Z score came out at 1.04.

Turning to `Cc1ccc2c(CCNC(=O)NC[C@@H](C)O)cn(C)c2c1`, the “% Inhibition” value is 6% and the Z score was -0.6.

Take `COc1cccc(S(=O)(=O)N2CCCN([C@H]3CCN(Cc4ccccc4)C3=O)CC2)c1`: the “% Inhibition” value was -3% and the Z score amounted to 0.39.

With `CCn1cc(Cl)c(C(=O)N2CC[C@H](c3ncon3)C2)n1`, the “% Inhibition” value is recorded as -7% and the Z score is recorded as 1.15.

`CC1CCCC(C)N1C(=O)c1nn2c(c1Cl)N[C@@H](c1cccs1)C[C@H]2C(F)(F)F` (stereo partly drawn): the “% Inhibition” value was -6% and the Z score worked out at 0.87.

Turning to `O=S(=O)(Nc1cnn(C[C@H]2COc3ccccc3O2)c1)C1CC1`, the “% Inhibition” value is given as 17% and the Z score is on record as -2.18.

Regarding `CCOC[C@H](O)COc1ccc(Br)cc1C#N`, the “% Inhibition” value was -14% and the Z score stood at 1.58.

Consider `NC(=O)c1ccc(CN2CCCS2(=O)=O)cc1`, for which the “% Inhibition” value is given as -5% and the Z score was 0.89.

Regarding `Cc1noc(-c2cc(C)c(C)c(S(N)(=O)=O)c2)n1`, the “% Inhibition” value was 0% and the Z score was 0.06.

As to `O=C(c1ccncc1)N1CCN(Cc2cccnc2)[C@@H]2CS(=O)(=O)C[C@@H]21`, the “% Inhibition” value is listed as -18% and the Z score is reported as 2.15.

As for `O=C(CN1CCCN(c2ccc3nccnc3n2)CC1)N1CCCC1`, the “% Inhibition” value is on record as -7% and the Z score is given as 0.62.

As to `CC(C)c1nnc(C(=O)NCc2cccnc2NCCN(C)C)s1`, the “% Inhibition” value is -6% and the Z score worked out at 0.82.

For `CNC(=O)NC1CN(C(=O)Nc2cc(F)ccc2C)C1`, the “% Inhibition” value is reported as -8% and the Z score was 0.87.

Consider `Cc1c[nH]c(-c2nccn2Cc2cnc3ccccc3c2)n1`, for which the “% Inhibition” value is -19% and the Z score came to 1.88.

For the compound `O=S(=O)(c1ccc2c(c1)CCCC2)N1CCN(c2nccs2)CC1`, the “% Inhibition” value turned out to be 27% and the Z score is recorded as -3.02.

On to `Cc1cc2sc(-c3ccccc3)c([O-])[n+]2cn1`, for which the “% Inhibition” value came out at 35% and the Z score was -5.01.

Consider `Cc1cccc(Cc2c(C)nc(C)nc2N2CCN(C(=O)c3ccccc3Cl)CC2)c1`, for which the “% Inhibition” value is 1% and the Z score is given as -0.15.

Consider `Cc1ccnc(N[C@H](c2cccs2)c2cc(C)sc2NC(=O)c2ccccc2)c1`, for which the “% Inhibition” value came out at 35% and the Z score is listed as -1.05.

As for `CCNc1ncc(C(=O)N(CC)CCOc2ccc(F)cc2)cn1`, the “% Inhibition” value turned out to be 8% and the Z score was -0.96.

For `C[C@H](Oc1cccc(C#N)c1)C(=O)NS(=O)(=O)CCC(C)(C)C`, the “% Inhibition” value stood at 30% and the Z score is recorded as -3.84.

For `CCOC1CC(NC(=O)CO)C1Oc1ccccc1` (stereo not drawn), the “% Inhibition” value is recorded as -6% and the Z score is 0.75.

In the case of `Cc1ccccc1C(=O)N1C[C@@H]2CN(C(=O)C3CCCC3)C[C@]2(C(=O)O)C1`, the “% Inhibition” value is reported as -3% and the Z score is 0.47.

Regarding `CCC(C)(CNC(=O)C(F)(F)c1ccc(OC)cc1)C(C)O` (stereo not drawn), the “% Inhibition” value was -14% and the Z score was found to be 2.

As for `O=C(NCc1ccc(Br)cc1F)NC[C@H]1CCOC1`, the “% Inhibition” value is recorded as -4% and the Z score worked out at 0.53.

Turning to `CC(C)c1ccc(N2C(=O)CN(CCCc3ccccc3)[C@H]3CS(=O)(=O)C[C@H]32)cc1`, the “% Inhibition” value was -7% and the Z score is reported as 0.98.

Take `O=C(N[C@@H](CC1CCCCC1)c1ncccn1)c1ccncc1F`: the “% Inhibition” value was -19% and the Z score was determined as 1.95.

Turning to `CC1=C(CCN[C@@H]2C[C@@H](C(=O)NC(C)C)N(C(C)C)C2)C(C)(C)CCC1`, the “% Inhibition” value was -8% and the Z score is reported as 1.

`Cc1ccc2cc1Oc1cccc(c1)CO[C@H]1CCN(C(=O)CC3CC3)C[C@H]1NC(=O)CN(C)C2=O`: the “% Inhibition” value came out at 2% and the Z score was -0.45.

For `O=C(c1cc(-c2ccco2)[nH]n1)N1CCCN(C[C@H]2CCCO2)CC1`, the “% Inhibition” value is listed as -4% and the Z score is on record as 0.42.

Regarding `CCCC[C@H](CC)C(=O)N1CCN(c2nc(Cc3ccccc3)nc3c2c(C)nn3-c2ccccc2)CC1`, the “% Inhibition” value is recorded as -13% and the Z score was found to be 1.88.

Regarding `CC(=O)N1c2ccccc2N=C(O)C[C@@H]1C`, the “% Inhibition” value is -2% and the Z score was determined as 0.24.

On to `Cn1c(N2CCCCO2)c(C#N)c(=O)n(C)c1=O`, for which the “% Inhibition” value is -9% and the Z score is 0.9.

As to `CC(C)(C)[C@H](NCc1cccnc1C(F)(F)F)C(N)=O`, the “% Inhibition” value is 6% and the Z score was -0.69.

On to `FC(F)(F)c1ccnc(Nc2ccc3c(c2)OCO3)n1`, for which the “% Inhibition” value is on record as -4% and the Z score was determined as 0.56.

As to `CCOCCCNC(=O)COc1cc(C)c2c(-c3ccccc3)nn(-c3ccccc3)c2n1`, the “% Inhibition” value is listed as -15% and the Z score was 2.18.

Regarding `COCc1ncc(C(=O)N2CC(C)C(C)C2)c(N)n1` (stereo not drawn), the “% Inhibition” value is listed as -1% and the Z score is reported as 0.13.

Take `CN(C)c1ccc(C(=O)N2CCC[C@H](n3cc(-c4nc(C5CC5)no4)nn3)C2)cc1`: the “% Inhibition” value is listed as -9% and the Z score amounted to 1.

In the case of `Cc1ccc(NC(=O)c2ccc(Oc3ccnc(-c4ccc(F)cc4)n3)cc2)cc1`, the “% Inhibition” value stood at 4% and the Z score was -0.52.

For `CCN(c1ccc(Br)cc1Cl)S(C)(=O)=O`, the “% Inhibition” value was -8% and the Z score was 1.27.

As to `COc1ccc(CN2C(=O)COC[C@H]2C(=O)N2CCN(C3CCCCC3)CC2)c(OC)c1`, the “% Inhibition” value is listed as -10% and the Z score stood at 1.65.

Consider `c1cnc2c(-n3nc(C4CCOCC4)nc3[C@H]3CCCN3)cccc2c1`, for which the “% Inhibition” value worked out at 13% and the Z score was -1.65.
